Measured values as given in PubChem BioAssay AID1346428 (National Center for Advancing Translational Sciences (NCATS), 2018).
Several values for one entry are separate records, joined by “and”; a condition that tells them apart may be missing. Equal entries are not always repeated. The campaign covered roughly 48,000 compounds. About 1,200 (2.5%) were called active. Roughly 2% stayed inconclusive and do not appear here.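 The calls were made as follows: active = activation of at least 60% and not above a set upper limit (about 1 call in 100 departs from these limits); inconclusive = activation of 40% to 60%, or above that upper limit; inactive = activation under 40%.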 The list shows a part of the results.
Also: 0% is about no effect.

Each molecule was assayed against Probable G-protein coupled receptor 32 (Homo sapiens) (UniProt O75388) (assay: qHTS for Agonists of Human Resolvin D1 Receptor DRV1). Conditions: CHO-K1 GPR32 beta-arrestin PathHunter luminescence, 90 min; at 76.9 µM; hits give high values; zero percent set by DMSO-only wells.
UniProt O75388, sequence (O75388 whole entry, looked up, the tested form may be a part): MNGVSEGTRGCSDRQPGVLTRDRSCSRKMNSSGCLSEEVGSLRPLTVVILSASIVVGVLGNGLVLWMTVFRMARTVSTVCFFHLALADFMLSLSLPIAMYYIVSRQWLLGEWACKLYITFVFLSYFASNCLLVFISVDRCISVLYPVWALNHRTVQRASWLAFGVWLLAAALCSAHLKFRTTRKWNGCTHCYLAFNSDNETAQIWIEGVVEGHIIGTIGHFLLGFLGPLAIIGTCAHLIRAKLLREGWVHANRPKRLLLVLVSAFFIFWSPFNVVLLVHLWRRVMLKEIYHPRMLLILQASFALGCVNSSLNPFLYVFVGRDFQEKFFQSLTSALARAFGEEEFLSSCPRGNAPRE
Outline: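 Agonism was scored as beta-arrestin recruitment to ProLink-fused GPR32 in stably transfected CHO-K1 cells, giving a chemiluminescent beta-Gal signal; compounds were incubated 90 min at 37 °C.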
`CCC(C(=O)N1CCN(c2ccccc2)CC1)n1c(C)c2cnn(-c3ccccc3)c(=O)c2c1C` (stereo not given) was tested, and the activation was inactive: 7.48%.
In the case of `Cc1ccc(N2CC(C(=O)Nc3ccc(N(C)C)cc3)CC2=O)cc1Cl` (stereo not given), the activation is reported as inactive: -4.19%.
For `CSc1ccc(-c2nnc(NC(=O)c3ccc4c(c3)OCCO4)o2)cc1`, the activation was inactive: -16.1%.
For `Fc1ccccc1N1CCN(c2nc3ccccc3c3nc(-c4ccccc4)nn23)CC1`, the activation was inactive: -5.51%.
For `CC(=O)Nc1cccc(-n2cc3c(c2-c2ccccc2Cl)c(=O)n(C)c(=O)n3C)c1`, the activation was inactive: -14.9%.
For `O=C(CCn1ccc2cc(S(=O)(=O)N3CCCC3)ccc21)NCc1ccccc1Br`, the activation was inactive: -14.2%.
For `CC(C)Oc1ccc(C(=O)Nc2c(C(=O)Nc3cccc(F)c3)oc3ccccc23)cc1`, the activation was inactive: -4.7%.
In the case of `O=C(CN1C(=O)c2cccnc2Oc2ccc(Cl)cc21)Nc1cccc(C(F)(F)F)c1`, the activation is reported as inactive: -18.2%.
For `COc1ccc(C)cc1Nc1cc(C)nc(C)n1`, the activation was inactive: -8.32%.
`CCOc1ccc(NC(=O)CCCOc2cc(=O)n(C)c3ccccc23)cc1` was tested, and the activation was inactive: -0.0397%.
In the case of `Clc1ccccc1CSc1nnc(C2CCNCC2)o1`, the activation is reported as inactive: -3.73%.
With `COc1ccc(N2CC(NC(=O)C3CCCCC3)CC2=O)cc1OC` (stereo not given) the activation was inactive: 4.36%.
`COc1ccc(N2CCN(C(=O)CN3C(=O)COc4ccc(S(=O)(=O)N5CCC(C)CC5)cc43)CC2)cc1` was tested, and the activation was inactive: -7.18%.
In the case of `COc1ccc(NC(=O)c2oc3ccccc3c2NC(=O)Cc2coc3ccc(C)cc23)cc1`, the activation is reported as inactive: -3.23%.
`Cc1ccc2nc(-c3ccc(C)o3)c(Nc3ccc4c(c3)OCCO4)n2c1` was tested, and the activation was inactive: -14.5%.
For `CCS(=O)(=O)c1oc(-c2ccc(F)cc2)nc1S(=O)(=O)c1ccccc1`, the activation was inactive: -18.2%.
For `O=C(CSc1nc2ncccc2o1)Nc1cccc(C(F)(F)F)c1`, the activation was inactive: -12.6%.
With `CCCCN(CC)C(=O)c1nn(-c2ccc(OC)cc2)c(=O)c2c1c1ccccc1n2C` the activation was inactive: -21.6%.
In the case of `COc1ccc(OC)c(CNC(=O)c2ccc3c(c2)c(C)c(C)n3C)c1`, the activation is reported as inactive: -24.3%.
`Cc1ccc(C)c(N2CCN(C(=O)c3cc4c(=O)oc5ccccc5c4s3)CC2)c1` was tested, and the activation was inactive: 4.56%.
In the case of `O=C(Cn1c(=O)n(-c2ccccc2)c(=O)c2ccc(C(=O)NCc3ccc4c(c3)OCO4)cc21)Nc1ccc(Br)cc1`, the activation is reported as inactive: -9.85%.
For `CCOc1cc(CNC(=O)c2ccc3nc(C(C)C)oc3c2)cc(OCC)c1OCC`, the activation was inactive: -0.746%.
`COc1ccc(N2CCN(S(=O)(=O)CCNC(=O)Cc3ccc(OC)c(OC)c3)CC2)cc1` was tested, and the activation was inactive: -9.74%.
For `Cc1nc(SCC(=O)Nc2nsc(-c3ccc(C(C)(C)C)cc3)n2)c2c3c(sc2n1)CCCC3`, the activation was inactive: -28.9%.
In the case of `CCN(C(=O)CSc1nc(-c2ccccc2)no1)c1ccccc1`, the activation is reported as inactive: 2.26%.
`Nc1ncnc2c1ncn2[C@@H]1O[C@H](CO)[C@@H](O)[C@H]1O` was tested, and the activation was inactive: 2.26% and inactive: 3.6%.
With `COC(=O)c1ccc(NC(=O)CCc2c(C)nc3c(c(C)nn3C(C)(C)C)c2C)cc1` the activation was inactive: -3.1%.
In the case of `Cc1ccc2occ(-c3cc(-c4ccc(F)cc4)nc4c3COc3ccc(F)cc3-4)c(=O)c2c1`, the activation is reported as inactive: 18.3%.
`Cc1nn(-c2ccccc2)c(C)c1/C=N/N1CCN(Cc2ccccc2)CC1` was tested, and the activation was inactive: -1.83%.
For `C=C1C(=C/C=C2\CCC[C@]3(C)[C@@H]([C@H](C)/C=C/[C@@H](O)C4CC4)CC[C@@H]23)C[C@@H](O)C[C@@H]1O`, the activation was active: 107%.
For `Cc1ccccc1CSc1nc(-c2cccc(F)c2)nc2c1Cc1c(CO)cnc(C)c1O2`, the activation was inactive: 28.6%.
`CN(C)C(=O)c1ccc2c(c1)N(CC(=O)NCc1ccccc1Cl)C(=O)C1CCCCN21` (stereo not given) was tested, and the activation was inactive: -14.2%.
For `COc1ccc(OC)c(CNC(=O)c2nn(C)c3c2CS(=O)(=O)c2ccccc2-3)c1`, the activation was inactive: -5.29%.
With `CCCN1CCN(CC2=C(C(=O)OCC)C(c3ccc(OC(C)C)cc3)NC(=O)N2)CC1` (stereo not given) the activation was inactive: -0.462%.
`COc1ccccc1-c1c(C)nn2c(N3CCN(c4ccccc4)CC3)cc(C)nc12` was tested, and the activation was inactive: -12.5%.
For `CCOc1ccc(-c2nc(CSCC(=O)NCCc3ccc(OCC)c(OCC)c3)c(C)o2)cc1`, the activation was inactive: 2.48%.
`CCn1c(=O)c(=O)n(CC)c2cc(N3CCCCC3)c(NC(=O)c3ccccc3OC)cc21` was tested, and the activation was inactive: 11.7%.
In the case of `CSc1nc2c(sc3ccccc32)c(=O)n1Cc1ccc(C)cc1`, the activation is reported as inactive: -11.8%.
For `O=C(NCCc1ccc(Cl)cc1)C(=O)NCC(c1cccs1)S(=O)(=O)c1cccs1` (stereo not given), the activation was inactive: -1.57%.
`COc1ccc(OC)c(CNC(=O)CN2N=C(c3ccc(Cl)cc3)CCC2=O)c1` was tested, and the activation was inactive: -20%.
